Source: PMC4336329 (PLoS ONE, 2015)
About 14,000 (4.5%) of roughly 310,000 compounds showed an effect of 50% or more. Effects have a minus sign here. This is one part of the list.

The compounds below were run against human ether-à-go-go-related gene (hERG) potassium channel (human, UniProt Q12809) (assay: primary screen, population patch clamp on CHO cells stably expressing hERG).
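Note: peak tail current of the secondary pulse compared with the same well before compound.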

human ether-à-go-go-related gene (hERG) potassium channel, sequence (Q12809 whole entry, looked up): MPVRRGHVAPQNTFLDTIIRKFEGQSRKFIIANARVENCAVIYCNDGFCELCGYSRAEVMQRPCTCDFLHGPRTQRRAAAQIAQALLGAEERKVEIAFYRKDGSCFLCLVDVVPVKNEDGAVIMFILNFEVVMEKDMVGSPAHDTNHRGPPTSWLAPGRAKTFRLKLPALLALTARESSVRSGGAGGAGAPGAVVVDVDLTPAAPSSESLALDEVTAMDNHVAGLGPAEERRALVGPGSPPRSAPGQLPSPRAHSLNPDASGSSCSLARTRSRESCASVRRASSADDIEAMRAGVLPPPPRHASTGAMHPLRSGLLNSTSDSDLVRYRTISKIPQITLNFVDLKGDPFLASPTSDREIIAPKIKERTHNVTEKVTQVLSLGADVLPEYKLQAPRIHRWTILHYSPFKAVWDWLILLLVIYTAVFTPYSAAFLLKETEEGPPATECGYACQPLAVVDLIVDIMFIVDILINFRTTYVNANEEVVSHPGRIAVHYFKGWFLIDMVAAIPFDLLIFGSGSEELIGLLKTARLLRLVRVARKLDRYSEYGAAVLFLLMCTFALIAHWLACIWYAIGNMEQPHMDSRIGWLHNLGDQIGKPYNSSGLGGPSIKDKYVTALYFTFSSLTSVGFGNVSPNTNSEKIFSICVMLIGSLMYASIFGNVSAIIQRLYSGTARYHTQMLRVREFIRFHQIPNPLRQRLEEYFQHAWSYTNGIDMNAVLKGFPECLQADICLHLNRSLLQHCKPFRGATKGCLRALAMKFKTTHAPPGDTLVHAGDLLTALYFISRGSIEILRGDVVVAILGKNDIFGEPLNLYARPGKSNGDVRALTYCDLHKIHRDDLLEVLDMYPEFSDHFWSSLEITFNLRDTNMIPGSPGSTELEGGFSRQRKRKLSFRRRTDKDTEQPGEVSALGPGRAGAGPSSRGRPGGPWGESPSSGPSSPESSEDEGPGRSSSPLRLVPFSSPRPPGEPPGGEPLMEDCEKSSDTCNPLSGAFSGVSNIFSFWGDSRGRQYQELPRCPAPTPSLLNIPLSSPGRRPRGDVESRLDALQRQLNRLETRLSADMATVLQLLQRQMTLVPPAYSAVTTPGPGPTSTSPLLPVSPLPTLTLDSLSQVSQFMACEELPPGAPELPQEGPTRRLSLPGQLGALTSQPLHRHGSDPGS

Row | SMILES | hERG current change (%, negative = inhibition) at 10uM [%]
1 | Cc1occc1C(=O)N1N=C(C2CC2)CC1(O)C(F)(F)F (stereo not shown) | 10
2 | COCCn1c(SCC(=O)N2CCN(c3ccccc3)CC2)nc2c(c1=O)SC(C)C2 (stereo not shown) | -58.8
3 | CCCn1c(N2CCN(C(=O)Nc3ccccc3)CC2)nc2ccccc21 | -35.9
4 | NC(=O)COC(=O)c1ccccc1SCC(=O)NC1CCCCCCC1 | 12
5 | O=C(NCc1ccco1)c1cccc(S(=O)(=O)N2CCCCC2)c1 | -24.7
6 | COc1ccccc1CCC(=O)Nc1ncc(C)s1 | 16.3
7 | CCn1c(=O)c(C)nn2c3ccccc3nc12 | -1.87
8 | O=C(O)CSCCn1cccn1 | -29.9
9 | CCn1c(=S)sc2c(=O)[nH]c(SCC(=O)Nc3cc(OC)ccc3OC)nc21 | 13.9
10 | O=C(O)COc1ccc(/C=N/NC(=O)Cc2ccc(Cl)cc2)cc1 | 1.77
11 | O=[N+]([O-])c1ccc(NC(=S)NCc2ccc(F)cc2)cc1 | -12.3
12 | O=C1Nc2ccccc2C12NCCc1c2[nH]c2ccccc12 (stereo not shown) | 4.01
13 | COc1ccc(S(=O)(=O)N2CCN(C(c3ccccc3)c3ccccc3)CC2)cc1NC(C)=O | 21.2
14 | CCOC(=O)C1CCN(c2ncnc3c2oc2ccccc23)CC1 | -34.9
15 | COC(=O)c1sc2ccccc2c1-n1cccc1C(=O)C(=O)Nc1ccc(C)cc1 | -2.91
16 | O=C(O)CSc1c2c(nc3cc(C(=O)Nc4cccc(C(F)(F)F)c4)ccc13)CCC2 | 14.3
17 | COc1ccc(C(=O)Nc2ccc(NC(=O)c3ccccc3OC)nc2)cc1 | 5.56
18 | COC(=O)c1ccc(OCC(O)CN(CCO)CC(O)Cn2ccc3ccccc32)cc1 (stereo not shown) | 6.93
19 | Cc1ccc(NC(=O)C2CCN(C(=O)c3ccco3)CC2)cc1C | 1.66
20 | Cc1ccc(C2=Nc3ccccc3N=C(c3ccc([N+](=O)[O-])cc3)C2)c(O)c1 | -3.53
21 | CSc1nc2ccc(NC(=O)c3c(F)cccc3F)cc2s1 | 8.89
22 | CCCCC1=CC2=CC(=O)C(C)(OC(=O)CC)C(=O)C2=CN1CCc1ccc(Br)cc1 (stereo not shown) | -58.9

Row | SMILES | hERG current change (%, negative = inhibition) at 10uM [%]
23 | COc1ccc(C(=O)NCc2nnc(SCC(=O)N3CCc4ccccc43)n2Cc2ccccc2)cc1 | 5.66
24 | Cc1ccc(S(=O)(=O)/C(C#N)=C/c2c(N3CC(C)OC(C)C3)nc3c(C)cccn3c2=O)cc1 (stereo not shown) | -28.1
25 | CCOC(=O)c1ccccc1NC(=O)Cn1cnc2c(cnn2-c2ccc(OC)cc2)c1=O | -3.53
26 | CCC(C)[C@H](NC(=O)C1CC(=O)N(c2ccc3c(c2)OCCO3)C1)C(=O)N1CCCCC1 (stereo partly shown) | 13.4
27 | Cc1ccc(/C=C2\SC(=S)N(CCC(=O)NCCCN3CCOCC3)C2=O)cc1 | -8.59
28 | CCOc1ccccc1/C=N/NC(=O)c1c(C)nc2ccc(Br)cn12 | -3.19
29 | O=C(NCc1ccccc1Cl)C1CCCN(S(=O)(=O)c2cccc3nsnc23)C1 (stereo not shown) | -18.3
30 | O=C(CCS(=O)(=O)c1ccccc1)Nc1nc2c(s1)CCCC2 | 0.42
31 | COc1cccc(NC(=O)CN(C)C(=O)Cc2ccc(Cl)cc2Cl)c1 | 9.75
32 | Cc1ccc(F)cc1NS(=O)(=O)c1ccc(Cl)s1 | -1.11
33 | O=C(CCc1nnc(Cc2cccc(C(F)(F)F)c2)o1)NCCc1ccccc1F | -13.3
34 | COc1ccc(OC)c(CNC(=O)C2CCCN(C(=O)N(C)C)C2)c1 (stereo not shown) | 8.08
35 | COc1ccc(C(=O)COC(=O)CCN2C(=O)C3C4CCC(C4)C3C2=O)cc1 (stereo not shown) | -11.5
36 | CC(=O)NC1=NN(C(C)=O)C(C)(c2ccccc2)S1 (stereo not shown) | 11.9
37 | CNC(=O)c1cc2c(cn1)[nH]c1ccccc12 | 31
38 | Cc1cccc(N2CC(=O)N(c3cccc(C)c3)CC2=O)c1 | 0.689
39 | Cc1cc(N2CCN(c3ccc(F)cc3)CC2)nc(-c2ccccc2)n1 | -13.7
40 | O=C1CCC(c2ccc3c(c2)CCC3)=NN1 | 17.3
41 | CCc1ccc(NC(=O)CN2C(=O)CC(C)S(=O)(=O)c3ccccc32)cc1 (stereo not shown) | -3.99
42 | NNC(=O)c1ncoc1-c1ccc(Cl)cc1 | 12.4
43 | CCN(CC(=O)Nc1ccc(C)c(F)c1)CC(=O)NC(C)C | 4.17
44 | O=C(CCC(=O)N1CCN(S(=O)(=O)c2ccccc2)CC1)c1cccs1 | -6.39

Row | SMILES | hERG current change (%, negative = inhibition) at 10uM [%]
45 | COc1ccccc1C(c1nnnn1Cc1ccccc1)N1CCN(C2CCCC2)CC1.Cl (stereo not shown) | -35.5
46 | COc1ccc(Oc2c(C=O)c3ccccc3n2C)cc1 | -7.74
47 | CCc1ccc(NC(=O)N2CCN(C(=O)C3CCCO3)CC2)cc1 (stereo not shown) | 2.96
48 | N#C/C(=C\c1cccs1)C(=O)Nc1nccs1 | 8.87
49 | COc1cc(S(=O)(=O)NCc2ccccn2)ccc1Cl | -10
50 | O=C(Cn1nnc(-c2ccc3c(c2)OCO3)n1)N1CCOCC1 | 10.3
51 | CC(C)(C)NC(=O)/C(=C/c1ccco1)c1ccccc1 | 0.949
52 | O=C(c1cccs1)N1CCN(Cc2ccccc2[N+](=O)[O-])CC1 | -17.7
53 | O=C(Cn1nnc(-c2cc(Cl)ccc2-n2cnnn2)n1)N1CCCc2ccccc21 | -30.3
54 | COc1ccc(CCNC(=O)C2CCN(C(=O)c3ccc(Br)cc3)CC2)cc1OC | -12
55 | CC1CCN(C(=O)CCCN2C(=O)c3cccnc3Oc3ccc(Cl)cc32)CC1 | -22.8
56 | CCn1nc(C)c(CNC(=O)C2CCC(=O)N(Cc3ccc(Cl)cc3)C2)c1C (stereo not shown) | 4.64
57 | CC1(c2ccccc2)NC(=O)N(CC(=O)Nc2ccc(S(N)(=O)=O)cc2)C1=O (stereo not shown) | 9.54
58 | Cc1nc(-c2ccc(Br)cc2)ccc1C(=O)O | 4.08
59 | O=C(NCCC1CCCCN1S(=O)(=O)c1ccc(Cl)cc1)C(=O)NCCN1CCOCC1 (stereo not shown) | -9.93
60 | COC(=O)c1cc(-c2cccc(OC)c2)n[nH]1 | 7.42
61 | Cc1ccc(Nc2nc(N)nc(CN3CCN(Cc4ccccc4)CC3)n2)cc1Cl | -76.4
62 | O=C(N[C@@H](Cc1c[nH]c2ccccc12)C(=O)O)c1ccc(Cl)cc1 | 10.4
63 | CC(c1ccccc1)N(C)CC(=O)NC(=O)NCCC1=CCCCC1 (stereo not shown) | -30.7
64 | O=C(COC(=O)c1c[nH]c2ccccc12)Nc1cccc(F)c1 | 13.9
65 | O=c1[nH]cnc2scc(C3COc4ccccc4O3)c12 (stereo not shown) | -12.7
66 | CCN(CC)S(=O)(=O)c1cccc(C(=O)N/N=C(\C)c2ccc(O)cc2O)c1 | 12.7

Row | SMILES | hERG current change (%, negative = inhibition) at 10uM [%]
67 | c1ccc(COC2CCCN(Cc3nc(-c4cnccn4)no3)C2)cc1 (stereo not shown) | 13.5
68 | O=C(O)C1CCCCC1C(=O)Nc1ccc(S(=O)(=O)N2CCCCCC2)cc1 (stereo not shown) | 11
69 | OCC1CCCN(c2ncnc3scc(-c4ccccc4)c23)C1 (stereo not shown) | 3.73
70 | COCc1cc(C)n(CC(=O)Nc2ccccc2C(=O)OC)c(=O)c1C#N | 0.16
71 | COc1ccc(CNC(=O)CN2C(=O)C(C)N(c3ccc(C)cc3)C2=O)cc1 (stereo not shown) | -4.38
72 | Cc1cccc(CSc2nnc(NC(=O)c3ccco3)s2)c1 | 12.5
73 | Cc1nc(N2CCN(C(=O)CCC(=O)O)CC2)c2c(C)c(C)sc2n1 | -1.2
74 | COc1cc2c(cc1OC)C(C)N(C(=O)Nc1ccc(F)cc1)CC2 (stereo not shown) | 10.6
75 | COc1ccc(CN(C)S(=O)(=O)c2ccc3c(c2)OCCO3)cc1 | -15.1
76 | CCOc1cc(CNn2nnnc2N)cc(Cl)c1OCC(=O)NC(C)(C)C | -13
77 | C=CCNC(=O)COc1coc(CN2CCN(Cc3ccccc3)CC2)cc1=O | 0.721
78 | Cc1ccc(N/C=C(\C#N)c2ccc(OCCCF)cc2)cc1 | 5.37
79 | CNC(=O)NC(=O)Cn1nc2n(c1=O)-c1ccccc1SC2 | 5.92
80 | COc1cc(CN2CCN(Cc3ccc(SC)cc3)CC2)cc(OC)c1O.O=C(O)C(=O)O | -67.9
81 | Cc1ccc(S(=O)(=O)N2CCCCC2)cc1C(=O)Nc1ccc(S(=O)(=O)Nc2ncccn2)cc1 | 11.7
82 | CN1CCc2c(sc(NC(=O)C3COc4ccccc4O3)c2C(N)=O)C1.Cl (stereo not shown) | -43.9
83 | COc1cc(C(=O)OCC(=O)NC(=O)NCc2ccccc2)ccc1OC(F)F | 15.9
84 | CCCCSc1nnc(-c2c[nH]c3ccccc23)n1C | -12.4
85 | CCOc1ccc(NC(=S)Nc2ccccc2C2CC2)cc1 | 5.38
86 | CCC(C)NC(=O)C1CCCN(S(=O)(=O)c2ccc3c(c2)CC(C)N3C(C)=O)C1 (stereo not shown) | -10.1
87 | O=C(NCc1ccco1)c1cc(-c2cccnc2)nc2ccccc12 | -52.6
88 | COc1ccc2cc(CN(CC3CCCO3)S(=O)(=O)c3ccccc3)c(=O)[nH]c2c1 (stereo not shown) | -16.9
